Laboratory results from article PMC6893898, “Receptor Interaction Profiles of 4-Alkoxy-Substituted 2,5-Dimethoxyphenethylamines and Related Amphetamines” (Frontiers in Pharmacology, 2019).
Where two headings read alike, the source gives them in different places.

Legend:
5-HT2A receptor [1] = molecular target: T1, 5-HT2A receptor (Homo sapiens, UniProt P28223); assay: biochemical; type: binding; set-up: expressed in transfected cells; host or cells: HEK 293 (membrane preparation); conditions: for Selectivity (binding ratios) 5-HT2A/5-HT1A / Selectivity (binding ratios) 5-HT2A/5-HT2C: binding ratio
5-HT2A receptor [2] = molecular target: T1, 5-HT2A receptor; assay: Activity at the 5-HT2A receptor (FLIPR calcium, NIH-3T3 cells); type: cell-based; set-up: expressed in transfected cells; host or cells: NIH-3T3 mouse embryonic fibroblasts; conditions: for Emax: NIH3T3, relative to 5-HT = 100%, read-out: h5-HT2A Activation efficacy max ± SD
5-HT2A receptor [3] = molecular target: T1, 5-HT2A receptor; set-up: expressed in transfected cells; host or cells: HEK 293 (membrane preparation); conditions: cited from earlier work
5-HT2A receptor [4] = molecular target: T1, 5-HT2A receptor; set-up: expressed in transfected cells; host or cells: NIH-3T3 mouse embryonic fibroblasts; method as in Luethi et al., 2018; conditions: ref Luethi et al., 2018, cited from earlier work
[5] = [3H]ketanserin, read-out: h5-HT2A Receptor binding Ki ± SD

T1 sequence (P28223 whole entry): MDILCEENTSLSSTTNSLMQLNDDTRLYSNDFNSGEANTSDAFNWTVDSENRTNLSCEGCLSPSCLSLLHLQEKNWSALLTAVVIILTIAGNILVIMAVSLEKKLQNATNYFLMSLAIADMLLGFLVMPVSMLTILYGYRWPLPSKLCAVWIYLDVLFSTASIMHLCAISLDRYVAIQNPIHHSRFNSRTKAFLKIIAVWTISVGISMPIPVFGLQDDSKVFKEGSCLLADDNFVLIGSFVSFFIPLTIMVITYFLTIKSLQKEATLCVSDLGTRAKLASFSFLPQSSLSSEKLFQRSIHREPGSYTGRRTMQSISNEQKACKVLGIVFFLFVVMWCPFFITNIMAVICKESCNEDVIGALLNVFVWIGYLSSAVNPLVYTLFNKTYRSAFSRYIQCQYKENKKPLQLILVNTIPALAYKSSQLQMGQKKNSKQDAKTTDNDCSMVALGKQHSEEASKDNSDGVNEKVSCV

Structure (SMILES) | Ki (5-HT2A receptor [1]; [5]) | Selectivity (binding ratios) 5-HT2A/5-HT1A (5-HT2A receptor [1]) | Selectivity (binding ratios) 5-HT2A/5-HT2C (5-HT2A receptor [1]) | EC50 (5-HT2A receptor [2]) | Emax (5-HT2A receptor [2]) | also measured
CCOc1cc(OC)c(CCN)cc1OC [2C-O-2, 2,5-dimethoxy-4-ethoxyphenethylamine] | 0.67 ± 0.09 µM | 5.4 | 3.4 | 0.016 ± 0.003 µM | 50 ± 10% | 
COc1cc(OCC(F)F)c(OC)cc1CCN [2C-O-21.5, 4-(2,2-difluoroethoxy)-2,5-dimethoxyphenethylamine] | 1 ± 0.1 µM | 2.9 | 4.2 | 2.6 ± 1.6 µM | 30 ± 8% | 5-HT2A activation potency (EC50) higher than for 2C-O-21 (9) (5-HT2A receptor [2]; higher EC50): 50 fold; 5-HT2A activation potency (EC50) higher than for 2C-O-22 (11) (5-HT2A receptor [2]; higher EC50): 6 fold
COc1cc(OCc2ccccc2)c(OC)cc1CCN [2C-O-27, 4-benzyloxy-2,5-dimethoxyphenethylamine] | 0.0081 ± 0.001 µM | 333 | 14 | 0.076 ± 0.08 µM | 36 ± 16% | 
C=C(C)COc1cc(OC)c(CCN)cc1OC [2C-O-3, 2,5-dimethoxy-4-methallyloxyphenethylamine] | 0.04 ± 0.008 µM | 68 | 3.8 | 0.0005 ± 0.0003 µM | 70 ± 4% | Higher 5-HT2A activation potency than 2C-B (5-HT2A receptor [2]): 4 fold
C=CCOc1cc(OC)c(CCN)cc1OC [2C-O-16, 4-allyloxy-2,5-dimethoxyphenethylamine] | 0.14 ± 0.04 µM | 32 | 3.4 | 0.0049 ± 0.0025 µM | 84 ± 4% | 
COc1cc(OCCF)c(OC)cc1CC(C)N (centres unmarked) [MFEM, 2,5-dimethoxy-4-(2-fluoroethoxy)amphetamine] | 1.9 ± 0.9 µM | >2.9 | 5.8 | 0.33 ± 0.18 µM | 56 ± 36% | 
COc1cc(OCCF)c(OC)cc1CCN [2C-O-21, 2,5-dimethoxy-4-(2-fluoroethoxy)phenethylamine] | 1.7 ± 0.6 µM | 3.2 | 2.1 | 0.053 ± 0.015 µM | 44 ± 17% | 
COc1cc(CCN)c(OC)cc1Br [2C-B, 4-bromo-2,5-dimethoxyphenethylamine] |  |  |  |  |  | Ki (5-HT2A receptor [3]; [3H]ketanserin, ref Luethi et al., 2018, read-out: h5-HT2A Receptor binding Ki ± SD): 0.0069 ± 0.0018 µM; EC50 (5-HT2A receptor [4]; read-out: h5-HT2A Activation potency EC50 ± SD): 0.0021 ± 0.0008 µM; h5-HT2A Activation efficacy max ± SD (5-HT2A receptor [4]; relative to 5-HT): 92 ± 8%
C=CCOc1cc(OC)c(CC(C)N)cc1OC (centres unmarked) [MALM, 4-allyloxy-2,5-dimethoxyamphetamine] | 0.15 µM | >37 | 6 | 0.0029 ± 0.0005 µM | 89% | Increase in 5-HT2A activation potency compared to 19 (5-HT2A receptor [2]): 66 fold
COc1cc(OCC(F)(F)F)c(OC)cc1CC(C)N (centres unmarked) [MTFEM, 2,5-dimethoxy-4-(2,2,2-trifluoroethoxy)amphetamine] | 0.46 ± 0.24 µM | >12 | 5.2 | 0.019 ± 0.001 µM | 80 ± 6% | Increase in 5-HT2A activation potency compared to 15 (5-HT2A receptor [2]): 17 fold
COc1cc(OCC(F)F)c(OC)cc1CC(C)N (centres unmarked) [MDFEM, 4-(2,2-difluoroethoxy)-2,5-dimethoxyamphetamine] | 0.98 ± 0.62 µM | >5.7 | 6.8 | 0.14 ± 0.08 µM | 48 ± 23% | Increase in 5-HT2A activation potency compared to 15 (5-HT2A receptor [2]): 2 fold
COc1cc(OC(C)C)c(OC)cc1CC(C)N (centres unmarked) [MIPM, 2,5-dimethoxy-4-isopropoxyamphetamine] | 4.4 ± 2.1 µM | >1.4 | 2.1 | 0.99 ± 0.33 µM | 47 ± 13% | 
COc1cc(CCN)cc(OC)c1OC [mescaline, 3,4,5-trimethoxyphenethylamine] |  |  |  |  |  | Ki (5-HT2A receptor [3]; ref Rickli et al., 2015, read-out: 5-HT2A receptor binding affinity): 6.3 µM
COc1cc(OCC(F)(F)F)c(OC)cc1CCN [2C-O-22, 2,5-dimethoxy-4-(2,2,2-trifluoroethoxy)phenethylamine] | 0.44 ± 0.06 µM | 7.5 | 4.3 | 0.46 ± 0.14 µM | 35 ± 8% | 
C=C(C)COc1cc(OC)c(CC(C)N)cc1OC (centres unmarked) [MMALM, 2,5-dimethoxy-4-methallyloxyamphetamine] | 0.061 µM |  | 4.8 | 0.0015 ± 0.0001 µM | 95% | 
COc1cc(OC)c(OC)cc1CC(C)N (centres unmarked) [TMA-2, 2,4,5-trimethoxyamphetamine] |  |  |  | 0.19 ± 0.09 µM | 84 ± 10% | Ki (5-HT2A receptor [1]): 1.3 ± 0.7 µM
